From PubChem BioAssay AID1347165 (National Center for Advancing Translational Sciences (NCATS), 2019)
Screen size: about 220,000 compounds; about 5,700 (2.6%) were called active. This list was built around the results that the source calls inconclusive (neither active nor inactive); the mix of calls is not that of the screen. Calls follow the shape of the dose curve; as a rule, active = well fitted inhibition curve with a large enough effect; inconclusive = small, poorly fitted or top-dose-only effect; inactive = no such curve, though single readings can be large or run the other way. A potency beside an inconclusive call is a rough fit, not a confirmed value.

Each compound was assayed against Lysine-specific demethylase 5B (Homo sapiens) (UniProt Q9UGL1) (assay: Primary screen for KDM5B Histone Demethylases FDH-coupled qHTS). Conditions: FDH-coupled NADH fluorescence (FDH is formaldehyde dehydrogenase); activity change, negative = inhibition: at 57.7 µM (top of the series) unless noted.
How it was run: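 KDM5BΔAP (200 nM final) in 50 mM HEPES pH 7.5, 0.01% Tween-20 was preincubated 10 min at RT with compound over a concentration range. Substrate mix (H3K4me3 12.5 µM, α-KG 25 µM, Fe²⁺, ascorbate, NAD⁺, FDH) was added, and NADH fluorescence change over 30 min gave dose-response curves.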
Also: nearly all actives have a fitted effect of over 70% in size.
For activity change, negative = inhibition in this document: 0% is about no effect.
Potency is read from the fitted curve at half-maximal effect; tags tell the direction and shape of the fitted curve.

UniProt Q9UGL1, sequence (Q9UGL1 whole entry, looked up): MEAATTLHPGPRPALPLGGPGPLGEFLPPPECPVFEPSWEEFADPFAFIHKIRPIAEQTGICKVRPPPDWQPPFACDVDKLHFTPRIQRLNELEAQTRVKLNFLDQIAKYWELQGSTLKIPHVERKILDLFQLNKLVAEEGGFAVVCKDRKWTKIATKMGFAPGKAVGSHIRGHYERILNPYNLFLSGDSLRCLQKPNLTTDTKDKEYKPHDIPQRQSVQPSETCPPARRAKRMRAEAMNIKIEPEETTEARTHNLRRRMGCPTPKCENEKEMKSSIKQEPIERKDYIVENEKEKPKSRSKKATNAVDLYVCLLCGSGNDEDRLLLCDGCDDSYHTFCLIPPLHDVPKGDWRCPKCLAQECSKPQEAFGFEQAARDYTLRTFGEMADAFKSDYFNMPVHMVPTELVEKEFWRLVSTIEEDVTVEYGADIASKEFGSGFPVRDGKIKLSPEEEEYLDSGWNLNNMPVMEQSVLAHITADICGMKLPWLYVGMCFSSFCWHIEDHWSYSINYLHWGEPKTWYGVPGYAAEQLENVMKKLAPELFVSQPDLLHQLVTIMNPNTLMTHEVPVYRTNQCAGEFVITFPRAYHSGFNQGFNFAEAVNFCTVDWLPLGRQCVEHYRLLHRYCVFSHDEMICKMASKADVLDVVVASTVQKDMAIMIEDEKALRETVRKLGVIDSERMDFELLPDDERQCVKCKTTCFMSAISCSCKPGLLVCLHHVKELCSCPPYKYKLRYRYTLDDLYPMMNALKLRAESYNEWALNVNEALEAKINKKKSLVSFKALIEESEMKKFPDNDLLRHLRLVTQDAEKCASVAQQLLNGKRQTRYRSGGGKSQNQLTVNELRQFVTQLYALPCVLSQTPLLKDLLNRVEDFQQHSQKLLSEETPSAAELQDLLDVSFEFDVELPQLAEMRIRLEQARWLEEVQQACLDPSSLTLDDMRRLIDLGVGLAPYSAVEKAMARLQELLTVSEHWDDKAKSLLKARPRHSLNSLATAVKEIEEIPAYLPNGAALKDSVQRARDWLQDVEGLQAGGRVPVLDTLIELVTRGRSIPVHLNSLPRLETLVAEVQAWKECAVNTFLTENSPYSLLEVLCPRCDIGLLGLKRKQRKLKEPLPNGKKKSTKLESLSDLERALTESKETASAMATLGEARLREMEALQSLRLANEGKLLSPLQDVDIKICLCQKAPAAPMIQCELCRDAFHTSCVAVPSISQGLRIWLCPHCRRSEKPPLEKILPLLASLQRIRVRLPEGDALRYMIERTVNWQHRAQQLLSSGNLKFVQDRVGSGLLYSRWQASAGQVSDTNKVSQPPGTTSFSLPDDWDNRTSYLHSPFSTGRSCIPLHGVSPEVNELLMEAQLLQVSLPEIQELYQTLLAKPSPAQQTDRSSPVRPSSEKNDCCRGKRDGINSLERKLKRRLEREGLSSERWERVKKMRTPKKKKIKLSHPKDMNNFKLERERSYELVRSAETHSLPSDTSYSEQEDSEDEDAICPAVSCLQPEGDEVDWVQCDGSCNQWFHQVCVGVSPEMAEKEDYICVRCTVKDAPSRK

Structure (SMILES) | activity change, negative = inhibition | Potency
Cc1ccsc1CNC(=O)/C=C/c1ccncc1 | inactive: -3.16% | –
CCOC(=O)N1CCc2c(sc(NCc3cccs3)c2C(=O)Nc2cc(Cl)ccc2OC)C1 | – | inconclusive: 17.8 µM [inhibitor, partial curve, poor fit]
O=C(N[C@H]1CCN2C(=O)c3ccccc3NC(=O)[C@@H]2C1)C1CCCCC1 | – | inconclusive: 35.5 µM [inhibitor, partial curve, poor fit]
CCOC(=O)c1cnc(Nc2ccccc2OCC)c2ccccc12 | inactive: -12.4% | –
CC(=O)NCCNC(=O)c1cc(-c2cccc3ccccc23)nc2ccccc12 | – | inconclusive: 31.6 µM [inhibitor, partial curve, poor fit]
Cc1ccc(C(=O)N2[C@@H]3CC[C@H]2CC(NC(=O)c2ccncc2)C3)cc1 (some centres undefined) | inactive: -1.43% | –
CCOC(=O)c1c(NC(=O)c2ccc(S(=O)(=O)N(CC(C)C)CC(C)C)cc2)sc2c1CCN(CC)C2 | – | inconclusive: 25.1 µM [inhibitor, partial curve, poor fit]
COc1nc2ccccc2nc1N1CCC(C(=O)NCc2ccccc2)CC1 | inactive: -1.01% | –
Cc1ccc(CCN2CCCC23Cc2ccccc2CNC3=O)cc1 (centres undefined) | – | inconclusive: 89.1 µM [inhibitor, partial curve]
COc1cccc(-c2nc3cnccn3c2NCCC(=O)N2CCN(C(C)C)CC2)c1 | – | active: 28.2 µM
c1cc(-c2ccnc3nc(C4CCCCC4)nn23)ccn1 | – | active: 31.6 µM
CCOC(=O)c1c(C)c(CCC(=O)NCCN2CCCC2)c(C)n1C | inactive: -17.1% | –
O=c1c2ccsc2ncn1Cc1coc(-c2ccccc2Cl)n1 | inactive: 1.15% | –
Cc1cccc(C(=O)n2nc(NCc3cccs3)nc2NCc2cccs2)c1 | – | inconclusive: 39.8 µM [inhibitor, single point]
CCN1CCN(CCOc2ccc3c(=O)c(-c4ccc(Br)cc4)c(C)oc3c2)CC1 | inactive: -4.35% | –
O=C(N[C@H]1CO[C@H]2[C@@H]1OC[C@@H]2Nc1nccc(-c2cccc(F)c2)n1)c1ccccc1 | – | inconclusive: 39.8 µM [inhibitor, partial curve, poor fit]
CN(C)c1nc2c(c(=O)[nH]1)CCN(Cc1ccc(F)c(Br)c1)CC2 | inactive: -5.12% | –
CN(C)CCNc1oc(-c2cccs2)nc1C#N | – | inconclusive: 25.1 µM [inhibitor, partial curve, poor fit]
O=C(Nc1ccc(S(=O)(=O)Nc2ccccn2)cc1)c1ccccc1 | – | inconclusive: 39.8 µM [inhibitor, single point]
Cc1ccc2c(c1)c(=O)c1ccccc1n2CCCC(=O)Nc1ccc(Cl)c(Cl)c1 | – | inconclusive: 28.2 µM [inhibitor, partial curve, poor fit]
CCC1COCCN1C(=O)c1coc(COc2ccc3c(c2)OCO3)n1 (centres undefined) | – | inconclusive: 7.08 µM [inhibitor, partial curve, poor fit]
Cc1cc(=O)n(CC(=O)Nc2ccc(C)c(C)c2)c(N2CCc3ccccc3C2)n1 | – | inconclusive: 10 µM [inhibitor, partial curve]

Structure (SMILES) | activity change, negative = inhibition | Potency
CCCC(=O)Nc1ccc2c(c1)nc1n2CCN(CCOC)C1 | – | inconclusive: 31.6 µM [inhibitor, partial curve, poor fit]
Cc1cc(Nc2cccc(Br)c2)n2c(nc3ccccc32)c1C#N | – | inconclusive: 39.8 µM [inhibitor, single point]
CC(C)c1nc(CNC(=O)CC2C(=O)NCCN2Cc2ccc(F)cc2Cl)cs1 (centres undefined) | – | inconclusive: 22.4 µM [inhibitor, partial curve, poor fit]
CC(=O)Nc1ccc(S(=O)(=O)NCC2CCC(C(=O)NCc3ccccc3)CC2)cc1 (centres undefined) | – | inconclusive: 2.24 µM [inhibitor, partial curve, poor fit]
COCCCNC(=O)N1CCCC(c2nc(-c3cccnc3)no2)CCNC(=O)CC1 (centres undefined) | – | inconclusive: 28.2 µM [inhibitor, partial curve, poor fit]
CCOc1cc(C(Nc2cc(C)ccn2)c2ccc3cccnc3c2O)ccc1OC (centres undefined) | – | inconclusive: 31.6 µM [inhibitor, partial curve, poor fit]
CSc1cccc(NC(=O)CCc2ncc(-c3c(F)cccc3F)o2)c1 | inactive: 27.7% | –
O=C(COc1ccc(NC(=O)C2CC2)cn1)NCc1ccccc1F | inactive: -14.1% | –
O=C(O)/C=C/c1ccsc1 | inactive: -2.31% | –
CCNC(=O)N1CCCC1c1noc(CCC(=O)NC(CC)CC)n1 (centres undefined) | inactive: 5.15% | –
COc1cccc2cc(-c3nnc(SCC(=O)c4ccc(F)cc4)n3C)oc12 | inactive: 1.61% | –
Cc1nn2c(c1-c1cccnc1N1CCOCC1)N(C(=O)c1ccc(Oc3ccccc3)cc1)CCC2 | inactive: 0.154% | –
CC(C)C[C@@H]1N[C@H](C(=O)N2CCOCC2)Cc2cn(CC3CC3)c3cccc1c23 | – | active: 35.5 µM
OCc1n[nH]c2c1CN(Cc1cccc(OCC(O)CN3CCOCC3)c1)CC2 (centres undefined) | – | inconclusive: 11.2 µM [inhibitor, partial curve]
COC(=O)c1c(NC(C)=O)c2cc(NC3CCN(C(C)=O)CC3)cnc2n1CC1CCCO1 (centres undefined) | – | active: 20 µM
COc1ccc(CNC2(Cc3cc(COc4ccccc4)on3)COC2)cc1 | – | inconclusive: 31.6 µM [inhibitor, partial curve, poor fit]
CCCCNC(=O)Nc1ccc2c(c1)N(C)C(=O)c1ccccc1S2 | – | inconclusive: 14.1 µM [inhibitor, partial curve, poor fit]
CC1=Nc2cc(C(=O)NCCCN(C)C)ccc2Sc2ccc(F)cc21 | – | inconclusive: 28.2 µM [inhibitor, partial curve]
O=C(O)c1ccnc(N2CCOCC2)c1 | – | inconclusive: 25.1 µM [inhibitor, partial curve, poor fit]
Cc1nc(N2CCC(C(O)c3nccn3C)CC2)c2sccc2n1 (centres undefined) | inactive: -22.1% | –
CCCCN(C(=O)COc1ccc2ccc(=O)oc2c1)C1CC(C)(C)NC(C)(C)C1 | – | inconclusive: 31.6 µM [inhibitor, partial curve, poor fit]
Cc1noc(C)c1CN1CCc2c(n(Cc3cccnc3)n(CCc3ccccc3)c2=O)C1 | – | inconclusive: 25.1 µM [inhibitor, single point]
